{"source": "the supplement of paper PMC8728848", "binders": {"B1": {"name": "SP8524D-bot-399-27-399 (Bacteroides ovatus) (protein)", "chain": "DAKYDTLDTHAYIEEALSSTSQKVTVQATGESFTTLNVHLSNLSSTDNHYKLVTDQSVLDTYNHINGTGYIMLPKDYYTLPETITVKAGQYAADALSIALKAFSQEMMKSGESYALPVKLVLQDGSISPMENTGTFVILAESIIEFSAPMFVGAPSLKANKFTESPETYSQYTIEVRFQVANTADRDRAVFKNGGDDANFILLRFEDPQSDNENYKAHSLVQIVGRNRLYLNPSNSFKPNEWQHLALVCDGSNYRLYINGVDSGVLSIPTGATTFSDVNWFCLGDDSYSRWGNCKILMSEARIWSVVRSASQIQNNMTQVSPKSVGLEAYWRFNEGQGNVFEDATGKGHTLTTSATPTWIDGILSTDKSTEWK"}}, "experiment_in_all_cases": "glycan array binding signal (z-score within array); higher = stronger binding", "settings_in_all_cases": "glycan notation: IUPAC condensed, linker removed", "key": {"Glc(b1-6)Glc": {"target": "Glc(b1-6)Glc", "procedure,_shortened": "(§1)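 Glycan array data came from 3228 arrays in the Consortium for Functional Glycomics database, and only arrays with an available protein sequence were kept. Glycan names were put into IUPAC-condensed notation, and columns mapping to the same glycan were averaged. The binding signal is a within-array Z-score, averaged across arrays of one protein sequence run at different concentrations or buffers and across linkers. A negative Z-score can be read as non-binding.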"}, "GlcA(b1-3)Gal": {"target": "GlcA(b1-3)Gal", "procedure,_shortened": "as §1"}, "GlcA(b1-3)GlcNAc": {"target": "GlcA(b1-3)GlcNAc", "procedure,_shortened": "as §1"}, "GlcA(b1-6)Gal": {"target": "GlcA(b1-6)Gal", "procedure,_shortened": "as §1"}, "[1]": {"target": "GlcA3S(b1-3)Gal(b1-4)GlcNAc(b1-2)Man", "procedure,_shortened": "as §1"}, "[2]": {"target": "GlcA3S(b1-3)Gal(b1-4)GlcNAc(b1-3)Gal(b1-4)Glc", "procedure,_shortened": "as §1"}, "[3]": {"target": "GlcNAc(a1-3)Gal(b1-4)GlcNAc", "procedure,_shortened": "as §1"}, "[4]": {"target": "GlcNAc(a1-4)Gal(b1-3)GlcNAc", "procedure,_shortened": "as §1"}, "[5]": {"target": "GlcNAc(a1-4)Gal(b1-4)GalNAc", "procedure,_shortened": "as §1"}, "[6]": {"target": "GlcNAc(a1-4)Gal(b1-4)GlcNAc", "procedure,_shortened": "as §1"}, "[7]": {"target": "GlcNAc(a1-4)Gal(b1-4)GlcNAc(b1-3)Gal(b1-4)Glc", "procedure,_shortened": "as §1"}, "[8]": {"target": "GlcNAc(a1-4)Gal(b1-4)GlcNAc(b1-3)Gal(b1-4)GlcNAc", "procedure,_shortened": "as §1"}, "[9]": {"target": "GlcNAc(a1-4)Gal(b1-4)GlcNAc(b1-3)Gal(b1-4)GlcNAc(b1-3)Gal(b1-4)GlcNAc", "procedure,_shortened": "as §1"}, "[10]": {"target": "GlcNAc(a1-4)Gal(b1-4)GlcNAc(b1-3)Gal(b1-4)[Fuc(a1-3)]GlcNAc(b1-3)Gal(b1-4)[Fuc(a1-3)]GlcNAc", "procedure,_shortened": "as §1"}, "[11]": {"target": "GlcNAc(a1-6)Gal(b1-4)GlcNAc", "procedure,_shortened": "as §1"}, "[12]": {"target": "GlcNAc(b1-2)Gal(b1-3)GalNAc", "procedure,_shortened": "as §1"}, "[13]": {"target": "GlcNAc(b1-2)Man(a1-3)[GlcNAc(b1-2)Man(a1-6)]Man(b1-4)GlcNAc(b1-4)GlcNAc", "procedure,_shortened": "as §1"}, "[14]": {"target": "GlcNAc(b1-2)Man(a1-3)[GlcNAc(b1-2)Man(a1-6)]Man(b1-4)GlcNAc(b1-4)[Fuc(a1-6)]GlcNAc", "procedure,_shortened": "as §1"}, "[15]": {"target": "GlcNAc(b1-2)Man(a1-3)[GlcNAc(b1-4)][GlcNAc(b1-2)Man(a1-6)]Man(b1-4)GlcNAc(b1-4)GlcNAc", "procedure,_shortened": "as §1"}, "[16]": {"target": "GlcNAc(b1-2)Man(a1-3)[GlcNAc(b1-4)][GlcNAc(b1-2)Man(a1-6)]Man(b1-4)GlcNAc(b1-4)[Fuc(a1-6)]GlcNAc", "procedure,_shortened": "as §1"}, "[17]": {"target": "GlcNAc(b1-2)[GlcNAc(b1-4)]Man(a1-3)[GlcNAc(b1-2)Man(a1-6)]Man(b1-4)GlcNAc(b1-4)GlcNAc", "procedure,_shortened": "as §1"}, "[18]": {"target": "GlcNAc(b1-2)[GlcNAc(b1-4)]Man(a1-3)[GlcNAc(b1-4)][GlcNAc(b1-2)Man(a1-6)]Man(b1-4)GlcNAc(b1-4)GlcNAc", "procedure,_shortened": "as §1"}}, "note": "Some of the results follow.", "data": [{"binder": "B1", "values": [{"measurement": "glycan array binding signal (z-score)", "setting": "Glc(b1-6)Glc", "value": -0.164}, {"measurement": "glycan array binding signal (z-score)", "setting": "GlcA(b1-3)Gal", "value": -0.529}, {"measurement": "glycan array binding signal (z-score)", "setting": "GlcA(b1-3)GlcNAc", "value": -0.533}, {"measurement": "glycan array binding signal (z-score)", "setting": "GlcA(b1-6)Gal", "value": 0.393}, {"measurement": "glycan array binding signal (z-score)", "setting": "[1]", "value": -0.378}, {"measurement": "glycan array binding signal (z-score)", "setting": "[2]", "value": -0.072}, {"measurement": "glycan array binding signal (z-score)", "setting": "[3]", "value": -0.203}, {"measurement": "glycan array binding signal (z-score)", "setting": "[4]", "value": -0.289}, {"measurement": "glycan array binding signal (z-score)", "setting": "[5]", "value": -0.226}, {"measurement": "glycan array binding signal (z-score)", "setting": "[6]", "value": 0.072}, {"measurement": "glycan array binding signal (z-score)", "setting": "[7]", "value": -0.393}, {"measurement": "glycan array binding signal (z-score)", "setting": "[8]", "value": -0.166}, {"measurement": "glycan array binding signal (z-score)", "setting": "[9]", "value": -0.365}, {"measurement": "glycan array binding signal (z-score)", "setting": "[10]", "value": 0.669}, {"measurement": "glycan array binding signal (z-score)", "setting": "[11]", "value": -0.542}, {"measurement": "glycan array binding signal (z-score)", "setting": "[12]", "value": -0.56}, {"measurement": "glycan array binding signal (z-score)", "setting": "[13]", "value": -0.165}, {"measurement": "glycan array binding signal (z-score)", "setting": "[14]", "value": 0.109}, {"measurement": "glycan array binding signal (z-score)", "setting": "[15]", "value": 0}, {"measurement": "glycan array binding signal (z-score)", "setting": "[16]", "value": 0.139}, {"measurement": "glycan array binding signal (z-score)", "setting": "[17]", "value": 16.1}, {"measurement": "glycan array binding signal (z-score)", "setting": "[18]", "value": 8.43}]}]}
